Experiments:
[1] = system: p-ERK in SW620 cells (K-Ras G12V); assay: Phospho-ERK1/2(THR202/TYR204) HTRF assay, SW620; format: cell-based; conditions: Homo sapiens, SW-620, 2 h, 2 hours incubation
[2] = system: p-ERK in AGS cells (K-Ras G12D); assay: Phospho-ERK1/2(THR202/TYR204) HTRF assay, AGS; format: cell-based; conditions: Homo sapiens, 2 h, 2 hours incubation

Q: With `C#Cc1c(F)ccc2cc(O)cc(-c3ncc4c(N5CCOC[C@H](F)C5)nc(OC[C@@]56CCCN5C[C@H](F)C6)nc4c3F)c12` (single isomer, unassigned) [Compound 12B] as the compound, how does the IC50 [1] read?
A: 2.08 nM

Q: What about the IC50 [2] of the same compound?
A: 2 nM

Reference: patent publication US20250019377A1 (JACOBIO PHARMACEUTICALS CO., LTD, priority 2021, published 2025)
